The labels stand for the following.
T1: UNK ZnF1-3 (human, UniProt Q9C0B0 31-174)
T1 sequence: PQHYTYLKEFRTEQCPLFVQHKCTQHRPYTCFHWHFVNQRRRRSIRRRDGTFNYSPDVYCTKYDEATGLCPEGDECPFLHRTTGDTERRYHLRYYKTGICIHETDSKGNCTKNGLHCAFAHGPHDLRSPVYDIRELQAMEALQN

B1: 77618270_77618390_2455_CDS_ENSG00000091656_ENST00000521891|human|control|control (ssRNA)
RNA: GGGAGUUCUACAGUCCGACGAUCACCCCGGGCAAGCCUGGGGUGAGGCUGUCCAGUCUUACAAUAAACACAAGAGCCACCCGGCUCAGGGUGUUUCUCCUUCAUAUGGGCCUCCAGGGUCUGCUGAUAUUUGUAGUGCCAGUUCAACAGAGGAUUGAGCAUCA
B2: chr6:87000925:87000926:+_ENSMUSG00000029992_ENSMUST00000113658|mus_mus|FALSE|FALSE (ssRNA)
RNA: GGGAGUUCUACAGUCCGACGAUCUUUGAUUAGUGUCUCCAAGAUUUCUCGUCUUGUUCGAGGAACAUGGUAAUUUAAAUAAGCAAAUAUACCGCACAUGAUGUUGGUCACGGGCGAGGGCUGAGCUGUCGGGCGCGCGGAGAGCAACAGAGGAUUGAGCAUCA
B3: chr3:100438856:100438857:+_ENSG00000114354_ENST00000490574|hu_hu|FALSE|FALSE (ssRNA)
RNA: GGGAGUUCUACAGUCCGACGAUCAACAAAUAAUGUCAGUUUCAGUAUCCUACUGCACUGAAUUGCAAAGGAAAGGUCAGAACUAUCAAAAAUUGUUAUAAGAUCUCCAUCUUCAUCUUUAUACUUUAUUGUUACUUCAUCAUUCAACAGAGGAUUGAGCAUCA
B4: chr14:78183846:78183847:+_ENSG00000119705_ENST00000557342|hu_hu|hu_hu_hu_mus_False|18_78 (ssRNA)
RNA: GGGAGUUCUACAGUCCGACGAUCUCUCAGAAAUCUUUCUUCAUCAGAUGUUUGAGCUGUUUGCGGAGCCUUUGCUCUUUGAGCUUGAACGUGGAUCUAUGGGAGGGAAAGCACUGUAUUUUCCUGUAAUUUUUUUUUUAAAGACAACAGAGGAUUGAGCAUCA
B5: chr1:185270655:185270656:-_ENSG00000116679_ENST00000392007|hu_mus|FALSE|FALSE (ssRNA)
RNA: GGGAGUUCUACAGUCCGACGAUCCUCAUGCUUAGGGCUUUGCAUUGAAGCAUUUGGAGAAGAGAGACAUCCAGUGGAACUGCCACUUAUCUGCUUAUGGCCAUUCUCACGGGGUGGCUUUUUCUGCACAAACUGAAUGUGGUCCAACAGAGGAUUGAGCAUCA
B6: chr7:141445308:141445309:+_ENSG00000106028_ENST00000265304|hu_hu|hu_hu_hu_mus_False|18_98 (ssRNA)
RNA: GGGAGUUCUACAGUCCGACGAUCUAUGAUUGUUGUUGCUUGUCGCCUCACAUUGUUUUUAUCCAUGUACUCGCCAUAGUCCACUUUCCCUUCCACAAAUAUACGAGCCCCCUUUUUCACAUAUUGAUAUGCCACAUCUCUGAGCAACAGAGGAUUGAGCAUCA
B7: 146261728_146269625_1292_3pUTR_ENSMUSG00000037110_ENSMUST00000109986|mouse|control|control (ssRNA)
RNA: GGGAGUUCUACAGUCCGACGAUCGGCAACAAAAAUGCCUGUCGAAAUACUUCAUUCACAAAAUUCACAUAACCCCGUGUUGACAGGAGGAUCCGCUGCACCAUCUCAUACACUGUCCGAUGCUCCUCUUCAAUGCUACAAAGACAACAGAGGAUUGAGCAUCA
B8: chr17:45757878:45757879:+_ENSG00000108424_ENST00000290158|hu_hu|motif|central (ssRNA)
RNA: GGGAGUUCUACAGUCCGACGAUCUGGCCUAGCUUCUACUAAUUUCAGUACAUCCUUCCCAAAUGCUGUACAUAAGUCCCCGGUUAGUCCAGCAGCACAAGCUACUACUCCAUCUGUGUGAUCCUCAUCUCCAGCAAUGUGGUCCAACAGAGGAUUGAGCAUCA
B9: chr9:15470827:15470828:-_ENSG00000164985_ENST00000397519|hu_hu|FALSE|FALSE (ssRNA)
RNA: GGGAGUUCUACAGUCCGACGAUCGAAUGUCAAGAGAAGGGCCCCAUUCUCAGGGAUAUAACUGCUAUUCCAGUUUAAUAACUAGCUUCAAAACAAAAUGAAUUUUUAUAUUUUCUAGAUGAAUAAUGUACAACCACCAUCUUCCAACAGAGGAUUGAGCAUCA
B10: chr13:56191178:56191179:-_ENSMUSG00000015937_ENSMUST00000016081|mus_mus|FALSE|FALSE (ssRNA)
RNA: GGGAGUUCUACAGUCCGACGAUCUUUAAGGUCAAUGUCAGCAUUGGUAGGAUUGAUUAUGGCCUCCACCUCAAAGCCGGCUAAAUUACUGAUUUCACUGUGAAUAAGGUUCAGCUUCUGGCCGAGGAAGAGGCUCUUGGUGGACAACAGAGGAUUGAGCAUCA
B11: 11407854_11410356_879_3pUTR_ENSMUSG00000026773_ENSMUST00000114846|mouse|control|control (ssRNA)
RNA: GGGAGUUCUACAGUCCGACGAUCUUAUCAGGGUCAAGAGGCUGGUAGCUGGCUUCAUAGCAAUUGAUUCUCUUCAUGAAGUCGUCCAUGGCUUCUGCUGAGUUGCAGUCUUUGUAAUCCGGGCUGGAGAUUUUAACUUCCAUGCAACAGAGGAUUGAGCAUCA
B12: chr9:13610522:13610523:+_ENSMUSG00000031918_ENSMUST00000134674|mus_hu|FALSE|FALSE (ssRNA)
RNA: GGGAGUUCUACAGUCCGACGAUCUCCUGUAUGGCUACUUUCUCCCCUUCAUUUUCCCCCAAGCACAUCUAUAAGGCCUCCCAUUUUGGAUCAACUUGCUAAUAUGUCUUAAGUAUGUAAAUAAUGACGGCAAUAAUUUUCAACCAACAGAGGAUUGAGCAUCA
B13: chr14:94519448:94519449:-_ENSG00000089737_ENST00000330836|hu_mus|motif|central (ssRNA)
RNA: GGGAGUUCUACAGUCCGACGAUCUGAGUUGUGCAGACAAGCCUGGAAGUUCCGGUAUUCAGCUUUUUCAAUCUGUCGGGCGGGACGGAUCCGCUCCUUGACCACAUCCAUGUACUUGGACUGCACUGGAAACAGUGGGAUGUCCAACAGAGGAUUGAGCAUCA
B14: chr17:65740002:65740003:+_ENSG00000130935_ENST00000581375|hu_hu|motif|central (ssRNA)
RNA: GGGAGUUCUACAGUCCGACGAUCACACCGUUCUUGCCUGGAUGAAGCAAGAGUUCACAUAAAAGAGCUUUAUAAAAUGUCGGUGAAGGAGAAUUGAUAAUAUCAGAAGAGCUCCAGCACUUCAAUUGAAUAUAAUCCUCUAUUCAACAGAGGAUUGAGCAUCA

This is one part of the list.

This experiment concerns the target T1, UNK ZnF1-3. The experiment is described as follows: nsRBNS (natural sequence RNA bind-n-seq); RBNS binding buffer (assumed for nsRBNS): 25 mM Tris pH 7.5, 150 mM KCl, 3 mM MgCl2, 0.01% Triton X-100, 500 ug/ml BSA, 20 U/ml SUPERase-In, 4 C; UNK is unkempt and MSI1 is Musashi-1; names of the RNAs are library labels; protein concentration not given here; high values mean tight binding.
Molecule B1 showed a binding signal of 0.823 enrichment R.
The figure for B2 is 1.31 enrichment R; for B3 it is 0.914 enrichment R; for B4 it is 1 enrichment R.
Turning to B5, the binding signal is 1.06 enrichment R.
The figure for B6 is 0.585 enrichment R.
B7 gave a binding signal of 1.74 enrichment R.
As for B8, the figure is 0.869 enrichment R.
B9 came in with a binding signal of 1.82 enrichment R.
As for B10, the figure is 0.773 enrichment R; as for B11, 0.481 enrichment R; as for B12, 1.7 enrichment R.
The figure for B13 is 0.707 enrichment R.
As for B14, the figure is 1 enrichment R.

For the origin of these results see paper PMC12136788.
